According to the supplement of paper PMC8728848:
This is one part of the list.

How the values were obtained:
Experiment in all cases: glycan array binding signal (z-score within array); higher = stronger binding
Conditions in all cases: glycan notation: IUPAC condensed, linker removed
[1] = biological target: Fuc(a1-2)Gal6S(b1-3)GlcNAc
In short: (§1)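 From the Consortium for Functional Glycomics database, 3228 arrays were curated, keeping only those whose protein sequence was available. Binding is given as a within-array Z-score averaged across arrays sharing a protein sequence and across linkers. Negative Z-scores can be read as non-binding.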

[2] = biological target: Fuc(a1-2)Gal6S(b1-3)GlcNAc6S
In short: as §1

[3] = biological target: Fuc(a1-2)Gal6S(b1-4)Glc
In short: as §1

[4] = biological target: Fuc(a1-2)Gal6S(b1-4)Glc6S
In short: as §1

[5] = biological target: Fuc(a1-2)[Gal(a1-3)]Gal
In short: as §1

[6] = biological target: Fuc(a1-2)[Gal(a1-3)]Gal(b1-3)GalNAc
In short: as §1

[7] = biological target: Fuc(a1-2)[Gal(a1-3)]Gal(b1-3)GalNAc(b1-3)Gal(a1-4)Gal(b1-4)Glc
In short: as §1

[8] = biological target: Fuc(a1-2)[Gal(a1-3)]Gal(b1-3)GlcNAc
In short: as §1

[9] = biological target: Fuc(a1-2)[Gal(a1-3)]Gal(b1-3)GlcNAc(b1-2)Man(a1-3)[Fuc(a1-2)[Gal(a1-3)]Gal(b1-3)GlcNAc(b1-2)Man(a1-6)]Man(b1-4)GlcNAc(b1-4)GlcNAc
In short: as §1

[10] = biological target: Fuc(a1-2)[Gal(a1-3)]Gal(b1-3)GlcNAc(b1-2)Man(a1-3)[Fuc(a1-2)[Gal(a1-3)]Gal(b1-3)GlcNAc(b1-2)Man(a1-6)]Man(b1-4)GlcNAc(b1-4)[Fuc(a1-6)]GlcNAc
In short: as §1

[11] = biological target: Fuc(a1-2)[Gal(a1-3)]Gal(b1-3)GlcNAc(b1-3)GalNAc
In short: as §1

[12] = biological target: Fuc(a1-2)[Gal(a1-3)]Gal(b1-3)GlcNAc(b1-6)GalNAc
In short: as §1

[13] = biological target: Fuc(a1-2)[Gal(a1-3)]Gal(b1-4)Glc
In short: as §1

[14] = biological target: Fuc(a1-2)[Gal(a1-3)]Gal(b1-4)GlcNAc
In short: as §1

[15] = biological target: Fuc(a1-2)[Gal(a1-3)]Gal(b1-4)GlcNAc(b1-2)Man
In short: as §1

[16] = biological target: Fuc(a1-2)[Gal(a1-3)]Gal(b1-4)GlcNAc(b1-2)Man(a1-3)[Fuc(a1-2)[Gal(a1-3)]Gal(b1-4)GlcNAc(b1-2)Man(a1-6)]Man(b1-4)GlcNAc(b1-4)GlcNAc
In short: as §1

[17] = biological target: Fuc(a1-2)[Gal(a1-3)]Gal(b1-4)GlcNAc(b1-2)Man(a1-3)[Fuc(a1-2)[Gal(a1-3)]Gal(b1-4)GlcNAc(b1-2)Man(a1-6)]Man(b1-4)GlcNAc(b1-4)[Fuc(a1-6)]GlcNAc
In short: as §1

[18] = biological target: Fuc(a1-2)[Gal(a1-3)]Gal(b1-4)GlcNAc(b1-3)GalNAc
In short: as §1

[19] = biological target: Fuc(a1-2)[Gal(a1-3)]Gal(b1-4)GlcNAc(b1-3)[Fuc(a1-2)[Gal(a1-3)]Gal(b1-4)GlcNAc(b1-6)]GalNAc
In short: as §1

[20] = biological target: Fuc(a1-2)[Gal(a1-3)]Gal(b1-4)GlcNAc(b1-6)GalNAc
In short: as §1

[21] = biological target: Fuc(a1-2)[Gal(a1-3)]Gal(b1-4)[Fuc(a1-3)]Glc
In short: as §1

[22] = biological target: Fuc(a1-2)[Gal(a1-3)]Gal(b1-4)[Fuc(a1-3)]GlcNAc
In short: as §1

[23] = biological target: Fuc(a1-2)[Gal(a1-3)]Gal(b1-4)[Fuc(a1-3)]GlcNAc(b1-3)GalNAc
In short: as §1

[24] = biological target: Fuc(a1-2)[Gal(a1-4)]Gal(b1-4)GlcNAc
In short: as §1

[25] = biological target: Fuc(a1-2)[GalNAc(a1-3)]Gal
In short: as §1

[26] = biological target: Fuc(a1-2)[GalNAc(a1-3)]Gal(b1-3)GalNAc(a1-3)[Fuc(a1-2)]Gal(b1-4)GlcNAc
In short: as §1

[27] = biological target: Fuc(a1-2)[GalNAc(a1-3)]Gal(b1-3)GalNAc(b1-3)Gal(a1-4)Gal(b1-4)Glc
In short: as §1

[28] = biological target: Fuc(a1-2)[GalNAc(a1-3)]Gal(b1-3)GlcNAc
In short: as §1

[29] = biological target: Fuc(a1-2)[GalNAc(a1-3)]Gal(b1-3)GlcNAc(b1-2)Man(a1-3)[Fuc(a1-2)[GalNAc(a1-3)]Gal(b1-3)GlcNAc(b1-2)Man(a1-6)]Man(b1-4)GlcNAc(b1-4)GlcNAc
In short: as §1

[30] = biological target: Fuc(a1-2)[GalNAc(a1-3)]Gal(b1-3)GlcNAc(b1-2)Man(a1-3)[Fuc(a1-2)[GalNAc(a1-3)]Gal(b1-3)GlcNAc(b1-2)Man(a1-6)]Man(b1-4)GlcNAc(b1-4)[Fuc(a1-6)]GlcNAc
In short: as §1

[31] = biological target: Fuc(a1-2)[GalNAc(a1-3)]Gal(b1-3)GlcNAc(b1-3)GalNAc
In short: as §1

[32] = biological target: Fuc(a1-2)[GalNAc(a1-3)]Gal(b1-3)GlcNAc(b1-6)GalNAc
In short: as §1

[33] = biological target: Fuc(a1-2)[GalNAc(a1-3)]Gal(b1-4)Glc
In short: as §1

[34] = biological target: Fuc(a1-2)[GalNAc(a1-3)]Gal(b1-4)GlcNAc
In short: as §1

[35] = biological target: Fuc(a1-2)[GalNAc(a1-3)]Gal(b1-4)GlcNAc(b1-2)Man
In short: as §1

[36] = biological target: Fuc(a1-2)[GalNAc(a1-3)]Gal(b1-4)GlcNAc(b1-2)Man(a1-3)[Fuc(a1-2)[GalNAc(a1-3)]Gal(b1-4)GlcNAc(b1-2)Man(a1-6)]Man(b1-4)GlcNAc(b1-4)GlcNAc
In short: as §1

[37] = biological target: Fuc(a1-2)[GalNAc(a1-3)]Gal(b1-4)GlcNAc(b1-2)Man(a1-3)[Fuc(a1-2)[GalNAc(a1-3)]Gal(b1-4)GlcNAc(b1-2)Man(a1-6)]Man(b1-4)GlcNAc(b1-4)[Fuc(a1-6)]GlcNAc
In short: as §1

[38] = biological target: Fuc(a1-2)[GalNAc(a1-3)]Gal(b1-4)GlcNAc(b1-3)Gal(b1-4)GlcNAc
In short: as §1

[39] = biological target: Fuc(a1-2)[GalNAc(a1-3)]Gal(b1-4)GlcNAc(b1-3)Gal(b1-4)GlcNAc(b1-3)Gal(b1-4)GlcNAc
In short: as §1

[40] = biological target: Fuc(a1-2)[GalNAc(a1-3)]Gal(b1-4)GlcNAc(b1-3)GalNAc
In short: as §1

[41] = biological target: Fuc(a1-2)[GalNAc(a1-3)]Gal(b1-4)GlcNAc(b1-3)[Fuc(a1-2)[GalNAc(a1-3)]Gal(b1-4)GlcNAc(b1-6)]GalNAc
In short: as §1

[42] = biological target: Fuc(a1-2)[GalNAc(a1-3)]Gal(b1-4)GlcNAc(b1-6)GalNAc
In short: as §1

[43] = biological target: Fuc(a1-2)[GalNAc(a1-3)]Gal(b1-4)[Fuc(a1-3)]GlcNAc
In short: as §1

[44] = biological target: Fuc(a1-2)[GalNAc(a1-3)]Gal(b1-4)[Fuc(a1-3)]GlcNAc(b1-3)GalNAc
In short: as §1

[45] = biological target: Fuc(a1-2)[GalNAc(a1-4)]Gal(b1-4)GlcNAc
In short: as §1

B1: DrGal3 (Danio rerio) (protein)
chain: MDLSDALDAPPQQNNQQAGGPVWPGQPANPVWPGQPANPTWPGQPNQPAWPGQPNQQWPGQPGQPTAPGWPGPAPQTGPYGAPGQAPQVLTVPLDFPLQNGAYNKMLITINGEVKPNAKQFTVNLRRGNDIAFHINPRFSEGGKPVIVRNSMIGNNWGREERELPSFPFVPGKPFEMKILITDTEYKVAVNKSHLLEFKHRVFELNQITGLSIYNDVTLSTVNVETLQ
Question: What does the source list for B1?
Answer: glycan array binding signal (z-score) [1]: -0.286; glycan array binding signal (z-score) [2]: -0.055; glycan array binding signal (z-score) [3]: -0.275; glycan array binding signal (z-score) [4]: -0.211; glycan array binding signal (z-score) [5]: -0.159; glycan array binding signal (z-score) [6]: -0.226; glycan array binding signal (z-score) [7]: 0.361; glycan array binding signal (z-score) [8]: -0.084; glycan array binding signal (z-score) [9]: -0.153; glycan array binding signal (z-score) [10]: -0.174; glycan array binding signal (z-score) [11]: -0.14; glycan array binding signal (z-score) [12]: -0.184; glycan array binding signal (z-score) [13]: -0.085; glycan array binding signal (z-score) [14]: 0.416; glycan array binding signal (z-score) [15]: 0.262; glycan array binding signal (z-score) [16]: 0.846; glycan array binding signal (z-score) [17]: 0.097; glycan array binding signal (z-score) [18]: -0.177; glycan array binding signal (z-score) [19]: 0.027; glycan array binding signal (z-score) [20]: -0.268; glycan array binding signal (z-score) [21]: -0.291; glycan array binding signal (z-score) [22]: -0.244; glycan array binding signal (z-score) [23]: -0.244; glycan array binding signal (z-score) [24]: -0.087; glycan array binding signal (z-score) [25]: -0.254; glycan array binding signal (z-score) [26]: -0.173; glycan array binding signal (z-score) [27]: -0.209; glycan array binding signal (z-score) [28]: -0.212; glycan array binding signal (z-score) [29]: -0.237; glycan array binding signal (z-score) [30]: -0.287; glycan array binding signal (z-score) [31]: -0.212; glycan array binding signal (z-score) [32]: -0.246; glycan array binding signal (z-score) [33]: -0.255; glycan array binding signal (z-score) [34]: -0.18; glycan array binding signal (z-score) [35]: -0.006; glycan array binding signal (z-score) [36]: -0.229; glycan array binding signal (z-score) [37]: -0.235; glycan array binding signal (z-score) [38]: 0.449; glycan array binding signal (z-score) [39]: 1.08; glycan array binding signal (z-score) [40]: -0.249; glycan array binding signal (z-score) [41]: -0.18; glycan array binding signal (z-score) [42]: -0.174; glycan array binding signal (z-score) [43]: -0.206; glycan array binding signal (z-score) [44]: 0.107; glycan array binding signal (z-score) [45]: -0.233
